Laboratory results: article PMC4336329 (PLoS ONE, 2015)
Hit rate of the full screen: of about 310,000 compounds, about 2,200 (0.71%) showed an effect of 50% or more. The effect is printed as a negative number. The list shows a part of the results.

biological target: human ether-à-go-go-related gene (hERG) potassium channel (human, UniProt Q12809); assay: primary screen, population patch clamp on CHO cells stably expressing hERG
Sequence (Q12809 whole entry, looked up): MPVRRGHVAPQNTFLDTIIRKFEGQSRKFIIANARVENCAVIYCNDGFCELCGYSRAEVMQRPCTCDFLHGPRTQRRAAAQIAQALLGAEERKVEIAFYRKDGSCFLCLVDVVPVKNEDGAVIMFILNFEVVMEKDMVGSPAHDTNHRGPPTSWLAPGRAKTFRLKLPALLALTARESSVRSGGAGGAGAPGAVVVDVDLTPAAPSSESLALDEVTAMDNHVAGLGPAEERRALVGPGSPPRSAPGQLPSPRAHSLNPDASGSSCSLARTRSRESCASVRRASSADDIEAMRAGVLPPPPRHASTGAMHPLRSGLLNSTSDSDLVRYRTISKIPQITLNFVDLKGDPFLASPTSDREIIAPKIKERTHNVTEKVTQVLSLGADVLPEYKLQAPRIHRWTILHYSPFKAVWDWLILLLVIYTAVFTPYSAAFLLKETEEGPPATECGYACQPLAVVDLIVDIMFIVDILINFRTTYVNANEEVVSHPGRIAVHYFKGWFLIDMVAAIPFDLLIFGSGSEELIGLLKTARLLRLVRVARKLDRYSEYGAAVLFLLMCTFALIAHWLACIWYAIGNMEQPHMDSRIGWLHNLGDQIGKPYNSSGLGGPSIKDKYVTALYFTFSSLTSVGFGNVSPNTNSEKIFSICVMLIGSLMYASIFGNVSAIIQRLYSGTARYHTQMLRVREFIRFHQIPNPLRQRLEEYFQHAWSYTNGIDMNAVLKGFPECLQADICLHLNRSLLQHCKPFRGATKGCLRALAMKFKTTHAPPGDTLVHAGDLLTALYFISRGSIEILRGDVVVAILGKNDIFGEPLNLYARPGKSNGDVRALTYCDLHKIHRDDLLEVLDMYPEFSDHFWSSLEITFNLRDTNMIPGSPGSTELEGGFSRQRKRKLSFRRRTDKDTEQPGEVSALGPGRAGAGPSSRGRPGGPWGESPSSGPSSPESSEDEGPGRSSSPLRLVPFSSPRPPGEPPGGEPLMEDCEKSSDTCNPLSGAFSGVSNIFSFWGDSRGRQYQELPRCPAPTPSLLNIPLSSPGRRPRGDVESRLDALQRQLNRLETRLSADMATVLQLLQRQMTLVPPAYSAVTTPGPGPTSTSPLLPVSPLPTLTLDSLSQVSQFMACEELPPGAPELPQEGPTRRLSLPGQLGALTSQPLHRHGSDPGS

| SMILES | hERG current change (%, negative = inhibition) at 1uM |
| --- | --- |
| COc1ccc(CN(C)S(=O)(=O)c2c(C)noc2C)cc1OC | 14.2% |
| Cc1ccccc1-n1c(C)nc2ccccc2c1=O | 5.04% |
| COc1ccccc1-n1ccnc(SCC(=O)NCCc2ccccc2)c1=O | 14.1% |
| Cc1ccc(N2CC(C(=O)NCc3n[nH]c(=O)c4ccccc34)CC2=O)cc1 (centres unmarked) | -8.02% |
| COc1ccc(-c2oc3ncnc(NCCN4CCOCC4)c3c2-c2ccc(OC)cc2)cc1 | 9.03% |
| COc1ccc(-c2noc3c2-c2nc(C4CCCCC4)sc2CC3)cc1 | 6.93% |
| COc1ccc(-c2nc3n(n2)C(c2cccnc2)C(C(N)=O)=C(C)N3)cc1 (centres unmarked) | 3.69% |
| CCc1cc2cccc(C)c2nc1SCC(=O)Nc1nonc1C | 0.701% |
| O=[N+]([O-])c1ccc(Cl)cc1NCCCN1CCOCC1 | 3.62% |
| COc1cccc(NC(=O)c2nn(C)c(C(=O)Nc3cccc(OC)c3)c2[N+](=O)[O-])c1 | 11.5% |
| O=C(COc1cc(F)ccc1[N+](=O)[O-])Nc1ccc(N2CCOCC2)cc1 | 11.6% |
| CCC(C)(C)NC(=O)C(c1cccc(OC)c1)N(C(=O)c1ccn[nH]1)c1cccc(OC)c1 (centres unmarked) | 7.27% |
| O=C(CSc1nnc(COc2ccc(Cl)cc2)o1)N1CCOCC1 | 2.14% |
| O=C(NC1CCCCCCC1)c1ccc(CNc2c(N3CCOCC3)c(=O)c2=O)cc1 | 9.8% |
| C=CCOc1ccc(CNC(C)(C)CO)cc1OC.Cl | 15% |
| Cc1ccc(CNC(=O)CS(=O)Cc2nc(-c3ccccc3F)oc2C)cc1 (centres unmarked) | 22% |
| Cc1cccc(NC(=O)CSc2ncnc3sc(C)c(C)c23)n1 | 3.7% |
| Cc1ccc(C(=O)NCCN2C3=NC[C@@H](Cc4ccccc4)N3C[C@H]2Cc2ccc(O)cc2)cc1Br | -4.33% |
| COc1ccc(C2SCC(=O)N2c2ccccc2)cc1 (centres unmarked) | 12.2% |
| O=C(NCc1cccc(Cl)c1)C1CCN(c2nnc(N3CCCC3=O)s2)CC1 | 3.63% |
| Cc1cc(C)n(C(=O)/C=C/c2cccs2)n1 | 13.6% |
| CC(=O)Nc1ccc(CN2CCc3c([nH]c4ccccc34)C2C(C)(C)C)cc1 (centres unmarked) | 11.6% |

| SMILES | hERG current change (%, negative = inhibition) at 1uM |
| --- | --- |
| Cc1ccc(S(=O)(=O)N2CCC(=O)N(C(COCc3cccc(C)c3)Cc3ccccc3)CC2)cc1 (centres unmarked) | 11% |
| O=C(CNCc1ccccc1Cl)Nc1ccc2c(c1)OCCO2.O=C(O)C(=O)O | -6.19% |
| CCN1CCN(c2cc(C)c3cc(NC(=S)NCc4cccs4)ccc3n2)CC1 | -3.12% |
| COc1ccc(NC(=O)CN(C)C(=O)c2cccc(S(=O)(=O)N3CCCc4ccccc43)c2)cc1 | -24.1% |
| FC(F)(F)c1nnc2ccc(Sc3ccccn3)nn12 | 14.2% |
| CCn1c(=O)c2c(cnn2C)c2ccccc21 | 9.08% |
| Cc1nnc(SCCn2c(N3CCCC(C)C3)nc3c2c(=O)[nH]c(=O)n3C)s1 (centres unmarked) | 12.2% |
| Cc1c(C)n(Cc2ccccc2)c2ncnc(NN)c12 | 10.8% |
| CC(C)(C)n1nnnc1C(c1cccs1)N1CCN(Cc2ccc3c(c2)OCO3)CC1 (centres unmarked) | 0.865% |
| CCOc1ccccc1NS(=O)(=O)c1cccs1 | 7.8% |
| CN(C)CCn1c(=S)[nH]c2ccc(Cl)cc2c1=O | -1.99% |
| COc1cccc(NC(=S)NN=C2CCC(C(C)(C)C)CC2)c1 (centres unmarked) | 6.45% |
| COC(=O)Cc1c(C)nc2nc(-c3ccc(OC)cc3)[nH]n2c1=O | 4.73% |
| COC(=O)c1ccc2c(=O)n(CCCCCC(=O)NCc3ccccn3)c(=O)[nH]c2c1 | 6.49% |
| COc1ccc(CCNC(=O)c2sc(=S)n(C)c2N)cc1 | 16% |
| COc1ccc(NC(=O)[C@H](Cc2c[nH]c3ccccc23)NC(=O)[C@@H]2Cc3ccccc3CN2)cc1 | 2.88% |
| O=C(CCC(=O)Nc1ccccc1Cl)NNC(=S)Nc1ccccc1C(F)(F)F | 15.8% |
| COc1ccc(CN2C(=O)CCC2(C)C(=O)NCc2cccnc2)c(OC)c1 (centres unmarked) | -1.98% |
| O=S1(=O)CC(N2CCOCC2)c2ccccc21 (centres unmarked) | 12.7% |
| COC(=O)C1=C(c2ccc(S(C)(=O)=O)cc2)C[C@@H]2CC[C@H]1N2C(=O)N1CCCC1 | 8.15% |
| Cc1cc2nnc(SCC(=O)N3CCN(c4ccccc4)CC3)n2c(N)n1 | 14.1% |
| O=C(C1CCN(C2CCN(CC3CC=CCC3)CC2)CC1)N1CCOCC1 (centres unmarked) | 6.95% |

| SMILES | hERG current change (%, negative = inhibition) at 1uM |
| --- | --- |
| OC(COc1ccc(Cl)cc1)CSc1ccccn1 (centres unmarked) | 16.1% |
| COC(=O)c1[nH]c2cccc(OC)c2c1NC(=O)CCN1CC(C)CC(C)C1 (centres unmarked) | -4.14% |
| CNCCc1c[nH]c2ccc(O)cc12.O=C(O)C(=O)O | 19.8% |
| CCC(/C=N/NC(=O)C1COc2ccccc2O1)CC (centres unmarked) | 8.97% |
| Cc1csc2nc(CNS(=O)(=O)c3ccc4c(c3)OCCO4)cn12 | 5.04% |
| CCOC(=O)C1CCCN(C(=O)c2cc3c(=O)n4ccccc4nc3s2)C1 (centres unmarked) | 5.53% |
| CC(C)CC(=O)CN1C(=O)C2(OCCO2)c2ccccc21 | 19.1% |
| O=C(Nc1ccc(Cl)c(Cl)c1)N(CCCN1CCOCC1)Cc1cccs1 | -41.8% |
| Cc1ccccc1NS(=O)(=O)c1ccc(C(=O)N2CCC2)cc1 | 12.3% |
| Cc1c(Cl)c(C(F)(F)F)nn1CC(=O)NCc1ccccc1 | 14.2% |
| COc1cccc(NC(=O)c2ccccc2N2C(=O)C3C4C=CC(C5CC45)C3C2=O)c1 (centres unmarked) | 12.1% |
| c1ccc(C2[C@H]3CN(CC4CCCCC4)[C@H](c4ccccc4)C34CC2(c2ccccc2)C4)cc1 (some centres unmarked) | 9.77% |
| Cn1cc(C(=O)c2ccccc2C(=O)O)cc1C(=O)C(Cl)(Cl)Cl | 10.1% |
| COC(=O)c1[nH]c2ccccc2c1NC(=O)/C=C/c1ccc2c(c1)OCO2 | 9.5% |
| CCC(C)[C@H](NC(=O)NCc1cccc(OC)c1)C(=O)OC (some centres unmarked) | 10.3% |
| CC(=O)c1nn(-c2ccc(C)cc2)cc1C(=O)c1cccc(Br)c1 | 10% |
| OC1CCN(c2ncnc3c2nnn3Cc2c(F)cccc2Cl)CC1 | 2.59% |
| CN(CCCC(=O)Nc1ccc(OC(F)F)cc1)S(=O)(=O)c1ccc(F)cc1 | -48.5% |
| COc1ccc(C(=O)O/N=C(\N)Cc2ccc(Cl)cc2)cc1OC | 3.31% |
| COc1ccc(C(=O)NCc2nnc(SCC(=O)Nc3nc4ccccc4s3)o2)cc1OC | 10.5% |
| O=C(N/N=C/c1ccc(OC(F)F)cc1OC(F)F)c1cccc(S(=O)(=O)N2CCOCC2)c1 | -7.97% |
| C[C@H](NC(=O)c1nc[nH]c1C(=O)NCc1ccc(CNC(=O)OC(C)(C)C)cc1)c1ccccc1 | 9.77% |

| SMILES | hERG current change (%, negative = inhibition) at 1uM |
| --- | --- |
| COc1ccc(-n2c(O)c(C(C)=NCCCn3ccnc3)c(=O)[nH]c2=O)cc1 | 7.06% |
| Cc1ccc(NC(=O)CN(C)C(=S)NC2CC2)cc1 | 15.5% |
| COc1cc(/C=N/Nc2nc(=O)[nH]nc2C)cc(OC)c1O | 9.86% |
| Nc1nnnn1CC(=O)N/N=C/c1ccccn1 | 16.7% |
| COc1ccc(N(CC(=O)N/N=C/c2ccco2)S(=O)(=O)c2ccccc2)cc1Cl | 3.85% |
| O=C(Nc1cc(C(F)(F)F)ccc1N1CCCC1)C1=COCCO1 | 19.4% |
| CCn1c(=O)c(=O)[nH]c2cc(C(=O)Nc3ccc(S(=O)(=O)N4CCCC4)cc3)ccc21 | 15% |
| O=C(Nc1cccn2ncnc12)c1cccc(C(F)(F)F)c1 | 10.5% |
| CCCNC(=O)CC(NS(=O)(=O)c1ccc(NC(C)=O)cc1)C(C)C (centres unmarked) | 10.5% |
| CCOC(=O)C1CCN(C(=S)NC2CC3C=CC2C3)CC1 (centres unmarked) | 3.95% |
| CCOc1cc(C(=O)Nc2nnc(CC)s2)ccc1OCC(=O)N1CCOCC1 | 13.3% |
| COc1ccc(OC)c(NC(=O)CC(Cc2ccccc2OC)C(=O)O)c1 (centres unmarked) | 15.3% |
| CCC(C)N(C(=O)Cn1nnc2ccccc21)C(C(=O)NCc1ccco1)c1cccc(OC)c1 (centres unmarked) | -2.59% |
| CN(C)c1ccc(/C=N/n2c(COc3ccccc3)n[nH]c2=S)cc1 | 19% |
| COc1ccc(S(=O)(=O)N2CCCCC2)cc1NC(=O)Cn1cnc2ccccc2c1=O | 12.3% |
| O=C1N/C(=N\S(=O)(=O)Cc2ccccc2)S/C1=C/c1cccc([N+](=O)[O-])c1 | 28.7% |
| CC1CN(S(=O)(=O)c2ccc(C(=O)N(CCCN(C)C)c3nc4c(Cl)cccc4s3)cc2)CC(C)O1.Cl (centres unmarked) | -8.33% |
| COc1ccc(C2=NCCn3nc4cc(C(F)(F)F)ccc4c32)cc1 | 3.19% |
| O=C(c1ccco1)N1CCCC(c2nc3c(nnn3Cc3ccc(Cl)cc3Cl)c(=O)[nH]2)C1 (centres unmarked) | 11.9% |
| COc1ccc(-n2c(-c3ccc(OC)c(OC)c3)n[nH]c2=S)cc1 | 9.62% |
